Experimental data reported in PMC4403821, “The Viral G Protein-Coupled Receptor ORF74 Hijacks β-Arrestins for Endocytic Trafficking in Response to Human Chemokines” (PLoS ONE, 2015).

What was measured:
WT-ORF74 = molecular target: T1, WT-ORF74 (Kaposi's sarcoma-associated herpesvirus …, UniProt Q98146 1-342); assay: cell-based or functional assay
T1 sequence: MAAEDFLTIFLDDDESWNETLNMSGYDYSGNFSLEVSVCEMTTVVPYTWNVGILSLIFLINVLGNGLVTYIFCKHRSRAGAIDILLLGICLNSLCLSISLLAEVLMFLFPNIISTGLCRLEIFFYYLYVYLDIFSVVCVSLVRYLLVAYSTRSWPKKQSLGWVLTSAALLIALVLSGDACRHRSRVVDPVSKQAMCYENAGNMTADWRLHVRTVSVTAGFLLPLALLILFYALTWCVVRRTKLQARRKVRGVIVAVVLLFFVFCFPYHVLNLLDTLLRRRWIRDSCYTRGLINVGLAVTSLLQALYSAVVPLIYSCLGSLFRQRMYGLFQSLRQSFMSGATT

ORF74-Rluc8 [1] = molecular target: T2, ORF74-Rluc8 (Kaposi's sarcoma-associated herpesvirus …, UniProt Q98146 1-342); assay: cell-based or functional assay
T2 sequence: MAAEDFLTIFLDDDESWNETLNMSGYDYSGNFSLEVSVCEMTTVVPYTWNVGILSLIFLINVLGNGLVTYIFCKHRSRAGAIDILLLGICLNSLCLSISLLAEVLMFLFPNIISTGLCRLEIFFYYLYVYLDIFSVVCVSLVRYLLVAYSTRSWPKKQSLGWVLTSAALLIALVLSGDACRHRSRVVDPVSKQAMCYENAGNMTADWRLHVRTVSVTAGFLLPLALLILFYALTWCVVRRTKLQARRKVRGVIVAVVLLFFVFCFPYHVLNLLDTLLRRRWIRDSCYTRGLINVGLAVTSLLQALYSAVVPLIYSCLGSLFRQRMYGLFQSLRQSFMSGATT

ORF74-Rluc8 [2] = molecular target: T2, ORF74-Rluc8; assay: radioligand binding; whole transfected HEK293T cells, 100 pM ^125I-CXCL8 with increasing unlabeled CXCL1 or CXCL8, 3h at 4°C, 50 mM HEPES pH 7.4, 1 mM CaCl2, 5 mM MgCl2, 0.5% BSA; washes with 0.5 M NaCl; Ki from IC50 by Cheng and Prusoff; conditions: one partner purified

B1: CXCL8 (ligand)
chain: not shown
WT-ORF74
  PLC activation (InsP accumulation) in HEK293T, pEC50; agonist: > 7
ORF74-Rluc8 [1]
  PLC activation (InsP accumulation) in HEK293T, pEC50; agonist: > 7
  β-arrestin1-eYFP recruitment to ORF74-Rluc8 (BRET), pEC50 of the chemokine; agonist: > 7
  β-arrestin2-eYFP recruitment to ORF74-Rluc8 (BRET), pEC50 of the chemokine; agonist: > 7
ORF74-Rluc8 [2]
  pKi: 8.8
